29 compounds from PubChem BioAssay AID1745853 (National Center for Advancing Translational Sciences (NCATS), 2022) can be followed below.

Experiment in all cases: Primary Screen for Target Class Profiling of Small Molecule Inhibitors of Methyltransferases
The target in experiment [1] is Glycine N-methyltransferase (Homo sapiens) (UniProt Q14749). The settings on record: purified enzyme, MTase-Glo SAH luminescence; measured here: GNMT inhibition; at 40 µM; stronger effect = lower value. The essentials:
(§1)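 Each enzyme was assayed with SAM and its substrate. SAH formation detected by MTase-Glo luminescence; single-point 40 uM screen[…].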

The target in experiment [2] is Guanidinoacetate N-methyltransferase (Homo sapiens) (UniProt Q14353). The settings on record: purified enzyme, MTase-Glo SAH luminescence; measured here: GAMT inhibition; at 40 µM; stronger effect = lower value. The essentials: as §1
Experiment [3] concerns the target Histamine N-methyltransferase (Homo sapiens) (UniProt P50135). The settings on record: purified enzyme, MTase-Glo SAH luminescence; measured here: HNMT inhibition; at 40 µM; stronger effect = lower value. A digest of the protocol:
as §1

For experiment [4], the target named is Nicotinamide N-methyltransferase (Homo sapiens) (UniProt P40261). The settings on record: purified enzyme, MTase-Glo SAH luminescence; measured here: NNMT inhibition; at 40 µM; stronger effect = lower value. The essentials: as §1
The target in experiment [5] is Phenylethanolamine N-methyltransferase (Homo sapiens) (UniProt P11086). The settings on record: purified enzyme, MTase-Glo SAH luminescence; measured here: PNMT inhibition; at 40 µM; stronger effect = lower value. A digest of the protocol: as §1

This is one part of the list. The main result of the screen is listed elsewhere. These columns were measured beside it and carry no call.
% is scaled to controls: 0 for no effect and ±100 for the full control effect.

`COc1ccccc1CNC(=O)c1ccc2c(=O)nc3c(-c4cccc(C)c4)n[nH]n3c2c1`: the activity change, negative = inhibition in experiment [1] is -10.7%; in experiment [2] it was -5.35%; in experiment [3] it was 1.3%; in experiment [4] it was -3.82%; in experiment [5], -5.45%.
In the same order, the values of `CCn1cc(C(=O)N[C@@H]2CN(c3ncccn3)C[C@H]2CO)cn1` are -6.06%, -9.82%, -3.19%, -18.9% and -5.13%.
On to `O=C1CN(Cc2cccc(Br)c2)S(=O)(=O)c2ccccc2N1Cc1cccc(F)c1`, for which the activity change, negative = inhibition in experiment [1] was determined as 18.9%; in experiment [2], 1.98%; in experiment [3], 14.3%; in experiment [4], 10.3%; in experiment [5] it was 11.5%.
As to `Cc1c(C(=O)Nc2cccc(-c3nc4ccccc4s3)c2)oc2ccc(F)cc12`, the activity change, negative = inhibition in experiment [2] is -24%; in experiment [4], -33.3%; in experiment [5], -4.22%.
Turning to `COc1cc(Cl)ccc1C(=O)N1CC[C@@](C)(O)[C@@H](O)C1`, the activity change, negative = inhibition in experiment [1] was -8.59%; in experiment [2], -14.5%; in experiment [3], -5.98%; in experiment [4] it was -20.3%; in experiment [5], -12.4%.
In the same order, the values of `COC[C@@H]1[C@H](C(=O)N2CCN(Cc3ccccc3)CC2)CCC(=O)N1C` are -2.77%, -3.4%, 1.41%, -2.46% and -1.75%.
Consider `CC(C)CCn1c(=O)c2ccccc2n2c(SCC(=O)NC3CCCCC3)nnc12`, for which the activity change, negative = inhibition is 5.3% in experiment [1]; 3.02% in experiment [2]; 12.9% in experiment [3]; -1.5% in experiment [4]; 6.75% in experiment [5].
In the same order, the values of `CCN1CCN(c2nc3c(-c4cccc(C)c4)nnn3c3ccc(Cl)cc23)CC1` are -4.07%, 4.89%, 4.06%, 6.21% and -0.917%.
As to `CCCn1c(=O)c2ccccc2n2c(=O)n(Cc3cccc(OC)c3)nc12`, the activity change, negative = inhibition in experiment [1] was -0.667%; in experiment [2], 3.04%; in experiment [3], 6.54%; in experiment [4], -5.06%; in experiment [5], 1.66%.
Turning to `C/C(=C\CCC(C)CCO)C(=O)O[C@@H]1[C@@H](O)[C@H](OC2OC=C(C(=O)O)C3CCC(C)(O)C23)O[C@H](CO)[C@H]1O` (stereo partly drawn), the activity change, negative = inhibition was 1.94% in experiment [1]; -2.57% in experiment [2]; 6.6% in experiment [3]; -9.55% in experiment [4]; -4.64% in experiment [5].
The corresponding values for `Cc1cccc(Cn2nc(C3CCCNC3)n(-c3ccccc3)c2=O)c1` (stereo not drawn) are -0.936%, 0.059%, -0.767%, 0.236% and 2.28%.
In the same order, the values of `CCc1cc(N2CCC(NCCc3cccc(Cl)c3)CC2)nc(C)n1` are -8.03%, -9.15%, -40.4%, -13.5% and -19.2%.
In the same order, the values of `C[C@]1(CO)[C@H]2Cc3sc(NC(=O)c4cccs4)nc3[C@@H](CC(=O)O)[C@]2(C)CC[C@H]1O` are -7.21%, -5.62%, -0.257%, -13.6% and -0.299%.
As for `CC1C2=CC(=O)OC2(O)CC2C1C(OC(=O)c1ccccc1)C(OC(=O)c1ccccc1)C1(O)C2(C)CCC(O)C1(C)C(=O)O` (stereo not drawn), the activity change, negative = inhibition was -0.062% in experiment [1]; -9.69% in experiment [2]; 4.94% in experiment [3]; -18.5% in experiment [4]; -0.513% in experiment [5].
The corresponding values for `O=C(O)[C@H]1C[C@H](C(=O)NCc2ccccn2)CN(Cc2ccccc2)C1` are -5.91%, -10.9%, -3.25%, -13.3% and -10.5%.
In the same order, the values of `O=C1c2ccccc2C(=O)c2cc(S(=O)(=O)NC3CCCCC3)ccc21` are -6.76%, 1.94%, 1.44%, -11.5% and -12.1%.
The corresponding values for `Nc1nc2c(nc(Br)n2C2OC3COP(=O)(O)O[C@@H]3C2O)c(=O)[nH]1` (stereo partly drawn) are 1.5%, 12.3%, 3.51%, -3.67% and 7.5%.
For the compound `C#Cc1cnc2[nH]c(=O)n(C(CC)CC)c2n1`, the activity change, negative = inhibition was -1.21% in experiment [1]; -2.28% in experiment [2]; 7% in experiment [3]; -14.4% in experiment [4]; 0.165% in experiment [5].
In the same order, the values of `CCc1cc(C(=O)N2CCC(c3nnc(Cn4cncn4)n3C)CC2)no1` are 0.365%, -2.62%, 0.755%, -3.54% and 0.257%.
As to `Cc1ccc(S(=O)(=O)N2CCC[C@H]2c2ccc(F)cc2)cc1`, the activity change, negative = inhibition in experiment [1] was -3.73%; in experiment [2], -7.21%; in experiment [3] it was -1.43%; in experiment [4] it was -35.8%; in experiment [5] it was -10.5%.
The corresponding values for `C[S+](=O)([O-])N1CCC2(C1)N=C(c1ccccn1)C(=O)N2` (stereo not drawn) are -2.83%, -5.81%, -5.57%, -10% and -15.2%.
In the same order, the values of `CC(C)(C)C(=O)Nc1nc2c(s1)C[C@@H]1[C@](C)(CO)[C@H](O)CC[C@@]1(C)[C@@H]2CC(=O)NC1CC1` are -1.64%, 1.68%, 0.127%, -2.92% and -2.57%.
In the same order, the values of `COc1ccccc1CNC(=O)C1(C)Cn2nc(-c3ccccc3)cc2C(=O)N1Cc1ccc(C)cc1` (stereo not drawn) are -5.14%, 0.217%, -2.21%, -7.85% and -2.69%.
Regarding `COc1cc(CCC(=O)N2C[C@@H](C(N)=O)[C@H](c3nc(C)no3)C2)on1`, the activity change, negative = inhibition is -3.2% in experiment [1]; -4.74% in experiment [2]; 0.296% in experiment [3]; -8.51% in experiment [4]; -16.9% in experiment [5].
The corresponding values for `COc1cccc(CN2CCC(Oc3ccccc3-c3nc(-c4ccncc4)no3)C2)c1` (stereo not drawn) are -16.7%, -8.17%, -35.4%, -37.8% and -7.69%.
Consider `O=C(Nc1cccc(F)c1)N1CCn2cccc2C1Cc1ccccc1` (stereo not drawn), for which the activity change, negative = inhibition in experiment [1] came out at 11.8%; in experiment [2] it was 0%; in experiment [3] it was 5.79%; in experiment [4] it was 4.2%; in experiment [5], 7.2%.
The corresponding values for `CCCn1c(=O)c2cc(F)ccc2n2c(SCC(=O)Nc3ccc4c(c3)OCCO4)nnc12` are -9.81%, 0.53%, 9.14%, -7.17% and 4.95%.
In the same order, the values of `O=C(NCCc1ccccc1)c1cc(-c2ccc(Cl)cc2)nc2n[nH]c(-c3ccccc3)c12` are 3.6%, 3.64%, -4.82%, -0.886% and -3.58%.
In the same order, the values of `Cc1ccc(C(=O)Cn2nc3n(CC(C)C)c(=O)c4ccc(C(=O)NC(C)C)cc4n3c2=O)c(C)c1` are 9.17%, 0.666%, 10.9%, 4.3% and 7.47%.
